Over roughly 2,900 compounds, “NF-kB SEAP reporter activity, fold change vs agonist alone” has its median near 0.99; the highest 2% begin near 2.6. The list shows a part of the results.
What was measured:
RAW-Dual [1] = experiment: NF-kB SEAP reporter activity, fold change vs agonist alone; cytotoxicity flag (confluency mask): not cytotoxic; higher = enhanced NF-kB activity
Outline: (§1)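 After 50 nL of library stock was delivered by pin tool to RAW-Dual macrophages (50,000 cells/well, DMEM, 384-well plates), a PRR agonist was added 1 h later and the plates were kept at 37 °C, 5% CO2. Twenty hours later, IRF was read from supernatant by QuantiLuc luminescence and NF-κB by QuantiBlue absorbance at 620 nm. Reporter activity is stated as fold change over agonist-alone wells. Wells with IncuCyte confluency under 70% of agonist controls in both mask sets were counted as cytotoxic.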

RAW-Dual [2] = experiment: NF-kB SEAP reporter activity, fold change vs agonist alone; higher = enhanced NF-kB activity; conditions: library stock concentration (final ~1000-fold dilution): 10 mM
Outline: as §1

RAW-Dual [3] = experiment: NF-kB SEAP reporter activity, fold change vs agonist alone; cytotoxicity flag (confluency mask): cytotoxic (confluency <70% of control); higher = enhanced NF-kB activity
Outline: as §1

[4] = agonist: ODN 1826 (TLR9) 0.5 ug/mL
[5] = agonist: Pam2CSK4 (TLR2/6) 0.1 ug/mL
[6] = agonist: Pam3CSK4 (TLR2/1) 0.1 ug/mL
[7] = cytotoxicity flag (confluency mask): not cytotoxic, agonist: Imiquimod (TLR7) […]
[8] = cytotoxicity flag (confluency mask): not cytotoxic, agonist: MPLA (TLR4) […]
[9] = cytotoxicity flag (confluency mask): cytotoxic (confluency <70% of control), agonist: MPLA (TLR4) […]

Q: For `CCN(CC)CCOC(=O)C(O)(c1ccccc1)c1ccccc1.Cl` (library stock concentration (final ~1000-fold dilution): 10 mM), which “NF-kB SEAP reporter activity” value (RAW-Dual [1]; agonist: LPS (TLR4) 0.1 ug/mL) is on record?
A: 1.2

Q: And the “NF-kB SEAP reporter activity” value (RAW-Dual [1]; [4])?
A: 0.872

Q: What about the “NF-kB SEAP reporter activity” value (RAW-Dual [1]; [5]) of the same molecule?
A: 1.14

Q: And the “NF-kB SEAP reporter activity” value (RAW-Dual [1]; [6])?
A: 1.07

Q: What does the source list for `CCN(CC)CCOC(=O)C(O)(c1ccccc1)c1ccccc1.Cl`?
A: NF-kB SEAP reporter activity (RAW-Dual [2]; [7]): 0.909; NF-kB SEAP reporter activity (RAW-Dual [2]; [8]): 1.01

Q: Which results are given for `Cn1c(CCCCCCC(=O)NO)nc2cc(N(CCCl)CCCl)ccc21`?
A: NF-kB SEAP reporter activity (RAW-Dual [2]; cytotoxicity flag (confluency mask): cytotoxic (confluency <70% of control), agonist: Imiquimod (TLR7) […]): 1.62; NF-kB SEAP reporter activity (RAW-Dual [2]; [9]): 2.33

Q: `Cn1c(CCCCCCC(=O)NO)nc2cc(N(CCCl)CCCl)ccc21` (library stock concentration (final ~1000-fold dilution): 10 mM) was tested. Which “NF-kB SEAP reporter activity” value (RAW-Dual [3]; agonist: LPS (TLR4) 0.1 ug/mL) did it give?
A: 3.35

Q: What about the “NF-kB SEAP reporter activity” value (RAW-Dual [3]; [4]) of the same molecule?
A: 1.5

Q: What about the “NF-kB SEAP reporter activity” value (RAW-Dual [3]; [5]) of the same molecule?
A: 1.55

Q: And the “NF-kB SEAP reporter activity” value (RAW-Dual [3]; [6])?
A: 1.91

Q: Which results are given for `CCCCCc1cc(O)cc(O)c1` (library stock concentration (final ~1000-fold dilution): 10 mM)?
A: NF-kB SEAP reporter activity (RAW-Dual [1]; agonist: LPS (TLR4) 0.1 ug/mL): 1.11; NF-kB SEAP reporter activity (RAW-Dual [1]; [4]): 0.427; NF-kB SEAP reporter activity (RAW-Dual [1]; [5]): 0.966; NF-kB SEAP reporter activity (RAW-Dual [1]; [6]): 0.739

Q: Which “NF-kB SEAP reporter activity” value (RAW-Dual [2]; [8]) does the source give for `CCCCCc1cc(O)cc(O)c1` here?
A: 0.946

Q: For `COc1cc(C2c3cc4c(cc3C(O)C3COC(=O)C23)OCO4)cc(OC)c1O` (centres undefined), which “NF-kB SEAP reporter activity” value (RAW-Dual [2]; [7]) is on record?
A: 2.53

Q: What about the “NF-kB SEAP reporter activity” value (RAW-Dual [2]; [8]) of the same molecule?
A: 2.24

Q: What does the source list for `COc1cc(C2c3cc4c(cc3C(O)C3COC(=O)C23)OCO4)cc(OC)c1O` (centres undefined) (library stock concentration (final ~1000-fold dilution): 10 mM)?
A: NF-kB SEAP reporter activity (RAW-Dual [1]; agonist: LPS (TLR4) 0.1 ug/mL): 3.91; NF-kB SEAP reporter activity (RAW-Dual [1]; [4]): 3.47; NF-kB SEAP reporter activity (RAW-Dual [1]; [5]): 2.24; NF-kB SEAP reporter activity (RAW-Dual [1]; [6]): 2.24

Q: For `C=C1C2CC3(C1O)C1CC4C5(C)CCC(O)C4(C1N(CC)C5)C3CC2=O` (centres undefined) (library stock concentration (final ~1000-fold dilution): 10 mM), which “NF-kB SEAP reporter activity” value (RAW-Dual [1]; agonist: LPS (TLR4) 0.1 ug/mL) is on record?
A: 1.24

Q: What about the “NF-kB SEAP reporter activity” value (RAW-Dual [1]; [4]) of the same molecule?
A: 0.894

Q: And the “NF-kB SEAP reporter activity” value (RAW-Dual [1]; [5])?
A: 1.08

Q: What about the “NF-kB SEAP reporter activity” value (RAW-Dual [1]; [6]) of the same molecule?
A: 1.26

Q: What does the source list for `C=C1C2CC3(C1O)C1CC4C5(C)CCC(O)C4(C1N(CC)C5)C3CC2=O` (centres undefined)?
A: NF-kB SEAP reporter activity (RAW-Dual [2]; [7]): 0.914; NF-kB SEAP reporter activity (RAW-Dual [2]; [8]): 0.994

Q: Which results are given for `Cl.Clc1ccc(C(OCCN2CCCCC2)c2ccccc2)cc1` (centres undefined) (library stock concentration (final ~1000-fold dilution): 10 mM)?
A: NF-kB SEAP reporter activity (RAW-Dual [3]; agonist: LPS (TLR4) 0.1 ug/mL): 0.653; NF-kB SEAP reporter activity (RAW-Dual [3]; [4]): 1; NF-kB SEAP reporter activity (RAW-Dual [3]; [5]): 0.512; NF-kB SEAP reporter activity (RAW-Dual [3]; [6]): 0.52

Q: How did the “NF-kB SEAP reporter activity” value (RAW-Dual [2]; [9]) turn out when `Cl.Clc1ccc(C(OCCN2CCCCC2)c2ccccc2)cc1` (centres undefined) was run?
A: 1.04
